From the supplement of paper PMC3334620
The full ranking holds about 33,000 sequences; the median of “E-score (-0.5 to 0.5)” is about -0.036, and the highest 2% start at about 0.37. Some of the results follow.

These sequences were tested against T1, Yer064c (UniProt P40041) (assay: PBM E-score (8-mer binding enrichment) (E-score (-0.5 to 0.5)); higher = stronger / more preferred TF binding; most listed sequences are background and not binding sites). Settings: protein concentration: 200 nM; construct: GST-full length.
T1 sequence: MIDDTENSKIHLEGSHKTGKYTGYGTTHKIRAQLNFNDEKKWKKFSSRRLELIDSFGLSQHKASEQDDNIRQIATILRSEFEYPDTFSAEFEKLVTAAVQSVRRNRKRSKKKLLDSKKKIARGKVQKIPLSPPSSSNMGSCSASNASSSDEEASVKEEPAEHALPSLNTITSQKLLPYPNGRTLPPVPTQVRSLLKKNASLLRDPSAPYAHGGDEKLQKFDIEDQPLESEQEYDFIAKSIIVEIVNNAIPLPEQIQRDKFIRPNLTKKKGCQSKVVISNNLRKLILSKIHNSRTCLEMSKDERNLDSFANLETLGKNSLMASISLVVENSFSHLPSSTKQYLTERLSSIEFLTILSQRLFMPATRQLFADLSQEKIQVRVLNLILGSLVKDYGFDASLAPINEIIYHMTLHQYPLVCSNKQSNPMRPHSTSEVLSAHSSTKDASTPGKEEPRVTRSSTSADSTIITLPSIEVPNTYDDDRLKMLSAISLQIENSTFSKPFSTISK
Protocol: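 Universal 'all 10-mer' protein binding microarrays (Agilent AMADID 015681) probed with GST-tagged S. cerevisiae TFs (full-length or DBD) made by in vitro transcription/translation (PURExpress), about 100-200 nM. Bound TF was detected with fluorescent anti-GST. Each ungapped 8-mer (which stands for itself and its reverse complement) is scored by the PBM enrichment score (E-score), a modified Wilcoxon-Mann-Whitney statistic from -0.5 to +0.5, computed with the Universal PBM Analysis Suite. Scale: above 0.35 generally sequence-specific binding.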

| Sequence | PBM E-score |
| --- | --- |
| ATTCGCCC | -0.152 |
| CAACCGGC | -0.11 |
| ATTAGCTA | 0.0473 |
| AGGCTTTG | -0.279 |
| CCGTGACA | -0.0855 |
| CGGGTGGC | -0.133 |
| GATCTGTA | -0.0639 |
| GTATCTGA | 0.106 |
| AGGTCATG | 0.17 |
| AGGTCAGA | 0.0471 |
| TTAGTCAA | 0.464 |
| ATGCTCGG | -0.0304 |
| CTCCCGGC | -0.115 |
| AAGTGGAT | -0.143 |
| CGTTGTCA | -0.123 |
| AAACGTCT | -0.07 |
| CCGAGGCC | -0.399 |
| ATACTTCC | -0.257 |
| CAACTGTC | -0.0861 |
| ACGTGGGG | -0.25 |
| ATACGAGA | -0.0298 |
| GAATACTC | 0.119 |

| Sequence | PBM E-score |
| --- | --- |
| GACTGGGC | 0.0848 |
| GTCGATGA | 0.261 |
| CGATCTGC | -0.0747 |
| GCGAGGTA | -0.0192 |
| CGTTGAAG | -0.0481 |
| CCTTGTCC | -0.0981 |
| TACGTGGA | -0.0983 |
| AGTCAGCA | 0.455 |
| ACAGGGGA | -0.21 |
| AGCTTAAT | 0.00456 |
| CTCTGCTC | -0.0659 |
| CCTCTAGA | 0.0428 |
| GCGAGTAC | 0.211 |
| ATACTTGC | -0.184 |
| CCGCAAAA | 0.0149 |
| ATTAGACC | 0.0346 |
| CCGATTCA | 0.166 |
| AGGACCCC | -0.252 |
| CGGGCCCA | -0.239 |
| GTGGGAAA | 0.0438 |
| CAACGACC | -0.0283 |
| CTCACCCA | 0.244 |

| Sequence | PBM E-score |
| --- | --- |
| CCGGGTAC | -0.0988 |
| ATTAGTAG | 0.146 |
| GACTATCC | 0.404 |
| ACACCTCT | -0.0794 |
| CTCCCATC | -0.0216 |
| GCCACGGA | -0.114 |
| AACAACTT | 0.0228 |
| CAGAGACA | -0.0213 |
| ACACTTTG | 0.062 |
| GAATTAGA | 0.0326 |
| CGGCCTCA | -0.23 |
| ACAACTTC | -0.0794 |
| TTATGAAA | 0.0843 |
| AGCTCGTC | -0.165 |
| GCTGCAAA | 0.0143 |
| ATGGCTGA | 0.158 |
| CGCCGGAC | -0.153 |
| CAATCCTG | -0.00882 |
| CACTCCGG | -0.097 |
| AATCGAAG | 0.165 |
| ATTTGCGG | -0.00482 |
| CCGATGCC | -0.041 |

| Sequence | PBM E-score |
| --- | --- |
| TAGCGAGA | 0.116 |
| AACCCTCT | -0.196 |
| AGCCTAGC | -0.166 |
| AGACCCGA | -0.0274 |
| CCGCGTCA | -0.294 |
| CTACACTC | 0.062 |
| TGCTACCA | -0.253 |
| TAGCACGA | -0.00447 |
| ACCTCTTG | -0.172 |
| AACCCGAA | -0.0529 |
| CGACTTAG | 0.272 |
| AACGGCGT | -0.0655 |
| AGTACGAG | 0.0389 |
| GCTAACTA | 0.0516 |
| ACTCTTCG | 0.213 |
| GCCCTAAA | -0.198 |
| GCCCCTTA | -0.199 |
| ACTAACAT | 0.243 |
| GAGTTTAC | 0.101 |
| ACTCCAGT | 0.145 |
